Where “and” joins values, the source holds several entries; their conditions need not be identical. Identical values can stand only once. Screen size: about 16,000 compounds; about 40 (0.2%) were called active. Another 1% or so got no clear call; they are omitted. Calls follow the shape of the dose curve; as a rule, active = well fitted activation curve with a large enough effect; inconclusive = small, poorly fitted or top-dose-only effect, or another doubt; inactive = no such curve, though single readings can be large or run the other way. The list shows a part of the results.
Biological target: Rap guanine nucleotide exchange factor 4 (Homo sapiens) (UniProt Q8WZA2)
Test: Validation qHTS for agonist of cAMP-regulated guanine nucleotide exchange factor 4 (EPAC2);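 also: exchange makes BODIPY-GDP fluorescence drop when released from Rap1B; series mostly up to about 150 µM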
Details: EPAC2 Rap1B BODIPY-GDP exchange, fluorescence; activation: stronger effect = higher value
Procedure, shortened: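 Signal normalized against 6.5 mM cAMP as agonist control. Mix of EPAC2 (100 nM), RAP1B-BODIPY-GDP (250 nM) and GDP (50 uM) was read kinetically at 480/540 nm, every 5 min over 30 min, after 5 min room-temperature incubation with compound.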
% is scaled to controls: 0 for no effect and ±100 for the full control effect.

UniProt Q8WZA2, sequence (Q8WZA2 whole entry, looked up): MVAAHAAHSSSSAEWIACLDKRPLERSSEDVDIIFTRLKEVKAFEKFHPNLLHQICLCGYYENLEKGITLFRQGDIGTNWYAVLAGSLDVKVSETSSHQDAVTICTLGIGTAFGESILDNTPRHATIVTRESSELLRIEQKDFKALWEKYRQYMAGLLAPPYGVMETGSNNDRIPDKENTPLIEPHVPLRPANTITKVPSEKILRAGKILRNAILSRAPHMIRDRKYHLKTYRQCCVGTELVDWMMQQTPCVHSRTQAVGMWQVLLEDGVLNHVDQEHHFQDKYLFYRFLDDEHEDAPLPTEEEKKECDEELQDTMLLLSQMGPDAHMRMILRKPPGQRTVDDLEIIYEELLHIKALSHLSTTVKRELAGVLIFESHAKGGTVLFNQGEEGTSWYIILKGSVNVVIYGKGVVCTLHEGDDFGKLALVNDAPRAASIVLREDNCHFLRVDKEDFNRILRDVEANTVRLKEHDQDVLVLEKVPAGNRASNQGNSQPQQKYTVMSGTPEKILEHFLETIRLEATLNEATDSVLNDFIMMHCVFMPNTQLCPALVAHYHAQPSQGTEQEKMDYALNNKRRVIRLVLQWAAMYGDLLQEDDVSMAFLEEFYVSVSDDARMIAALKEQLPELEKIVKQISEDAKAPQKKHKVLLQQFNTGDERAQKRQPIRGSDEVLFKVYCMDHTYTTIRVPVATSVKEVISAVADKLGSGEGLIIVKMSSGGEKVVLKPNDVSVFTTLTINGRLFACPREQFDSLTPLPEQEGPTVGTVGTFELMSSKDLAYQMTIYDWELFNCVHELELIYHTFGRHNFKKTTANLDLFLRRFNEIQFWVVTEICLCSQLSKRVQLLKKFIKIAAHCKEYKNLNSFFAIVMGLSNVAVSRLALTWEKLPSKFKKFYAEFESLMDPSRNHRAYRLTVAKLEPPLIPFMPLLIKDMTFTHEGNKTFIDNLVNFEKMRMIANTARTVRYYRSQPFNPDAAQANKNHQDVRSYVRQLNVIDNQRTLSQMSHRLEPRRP

activation, inactive:
O=C(c1csnn1)N1CCC[C@@]2(CCN(c3ccccn3)C2)C1 -17.6%
O=C(Oc1ccccc1)N1CCC2(CC1)CN(c1ccccn1)C2 6.1%
CC(=O)c1ccc2oc3ccccc3c(=O)c2c1 -18.2%
O=C1CC[C@@H](CN(Cc2cccnc2)C2CCN(c3ccc(NC(=O)c4cnccn4)cc3)CC2)N1 -4.13%
CCNc1ncc2nc(-c3cccs3)c(=O)n(Cc3cccc(OC)c3)c2n1 -3.24%
Cc1cccc(CNc2ccnc(-c3ccoc3)n2)c1 -30.4%
Cc1ncc2c(c1CNC(=O)c1cncs1)CCN(C(=O)c1cccc(-c3cccc(F)c3)c1)C2 -15.7%
OCl 12.4%
CN(C)CCCCSC(=N)N -11.1% and 7.5%
COC(=O)c1ccc(-c2cccc3c2OC(CNC(=O)/C=C/c2ccc(OC)c(OC)c2)C3)nc1 (stereo not given) 3.94%
COc1cc(C=O)ccc1O -4.55% and 6.75%
O=c1c(-c2ccccc2)nc2cnc(N3CCNCC3)nc2n1C1CC1 -5.11%
C#C[C@]1(O)CC[C@H]2[C@@H]3CCc4cc(OC)ccc4[C@H]3CC[C@@]21C -7.53%
COc1cc(C2c3cc4c(cc3C(OC3OC5COC(C)O[C@@H]5C(O)C3O)C3COC(=O)C23)OCO4)cc(OC)c1O (stereo not given in full) 14.6%
CC(N)(Cc1ccc(O)cc1)C(=O)O (stereo not given) -6.55%
CC(C)NCC(O)c1ccc(NS(C)(=O)=O)cc1 (stereo not given) 8.35% and 5.75% and -23%
O=C(Oc1ccccc1)N1CCC2(CC1)CCN(c1ccncc1)CC2 -23.8%
CC1=C(C)C(=O)C(CCCCC#CCCCC#CCO)=C(C)C1=O -22.4% and -7.65%
O=c1c(-c2ccc(F)cc2)nc2cnc(Nc3ccccc3)nc2n1C1CC1 -3.29%
COC(=O)[C@H](C)NS(=O)(=O)C1CC1 -14%
COc1ccc(NC(=O)N2CCC3(CC2)CCN(C(=O)c2ccco2)CC3)cc1 -8.88%
CN(CCOc1ccc(NS(C)(=O)=O)cc1)CCc1ccc(NS(C)(=O)=O)cc1 -7.59%
COc1cc(=O)n2c(c1C(=O)NC(C)c1ccco1)CCN(C(=O)c1ccnc(Cl)c1)CC2 (stereo not given) -22.1%
COCC(=O)N1CCC2(CCN(Cc3nccs3)CC2)CC1 -10.2%
Cc1c(N)nc(C(CC(N)=O)NCC(N)C(N)=O)nc1C(=O)NC(C(=O)NC(C)C(O)C(C)C(=O)NC(C(=O)NCCc1nc(-c2nc(C(=O)NCCCN[C@@H](C)c3ccccc3)cs2)cs1)C(C)O)C(O[C@@H]1O[C@@H](CO)[C@@H](O)[C@H](O)[C@@H]1O[C@H]1O[C@H](CO)[C@@H](O)[C@H](OC(N)=O)[C@@H]1O)c1cnc[nH]1 (stereo not given in full) -6.84%
Cc1noc(C)c1C(=O)N1CCC2(CC1)CN(c1ccccc1)C2 6.53%
COc1ccc(/C=C/C(=O)c2ccc(C)s2)cc1 3.58%
O=C(O)[C@@H]1C[C@@H](C(=O)O)N1 4.99% and 4.66% and -6.1%
Fc1ccc(Nc2ccnc(-c3ccccc3C(F)(F)F)n2)cc1 -20.1%
CS(=O)(=O)N1CCC2(CC1)CN(C(=O)Nc1ccccc1)C2 -0.788%
COc1ccccc1CCn1c(=O)c(-c2ccc(F)c(F)c2)nc2cncnc21 1.69%
OCC1OC(Oc2cccc3cccnc23)C(O)C(O)C1O (stereo not given) 5.84%
COc1ccccc1CNc1nc(-c2c(C)noc2C)nc2ccccc12 5.53%
CC(C)=CCn1cnc2c1c(=O)n(C)c(=O)n2C -1.98%
COc1ccccc1-c1nc(NCc2ccccc2)c2ccccc2n1 -17.3%
CN(C)CCCSc1ccccc1NC(=O)/C=C\c1ccccc1 -24.6%
Cc1ncc2c(c1CNS(=O)(=O)N(C)C)CCN(C(=O)/C=C/c1ccccc1F)C2 -1.62%
Cc1cccc(CNc2nc(-c3ccccc3CN(C)C)nc3ccccc23)c1 -18.7%
O=S1(=O)CCOC[C@H](CC2CCCCC2)N1Cc1cccc(F)c1 -21%
O=C(O)P(=O)(O)O -7.99%
COc1ccc(-n2c(=O)cnc3cnc(Oc4cccc(Cl)c4)nc32)cc1 -3.9%
CC(C)C(NC(=O)c1ccccn1)c1nnc2n1CCN(Cc1ccc3ccccc3c1)CC2 (stereo not given) -12.6%
CC(C)c1c(C(=O)NCC(C)(C)N2CCOCC2)cnn1-c1nccc(-c2cccs2)n1 0.997%
CCCN(C/C=C\I)[C@@H]1CCc2cccc(O)c2C1 -9.81%
COC(=O)c1ccc2nc3c(cc2c1)[C@@H]1CCN2C(=O)CCC[C@H](C3)[C@H]12 -19.5%
Cc1nc2cnc(N3CCNCC3)nc2n(Cc2cccs2)c1=O -14.3%
O=C(C(=O)N1CCOc2ccc(CN3CCN(Cc4ccccn4)CC3)cc2C1)c1ccccc1 5.63%
CCCCCCCCCCCCCCCC[N+](C)(C)CCN(Cc1ccc(OC)cc1)c1ncccn1 -15.4%
CN(C)CCCSc1ccccc1NC(=O)/C=C/c1ccccc1 -12.7%
COc1ccc(Oc2ncc3nc(-c4ccccc4)c(=O)n(CCC#N)c3n2)cc1 -0.503%
NC(C(=O)O)c1cccc(O)c1 (stereo not given) 11.5%
COc1cccc(C(=O)N(Cc2cc3cc4c(cc3nc2N(C)C)OCO4)CC2CCCO2)c1 (stereo not given) 2.19%
N[C@H](C(=O)O)[C@H](O)C(=O)O -3.76% and 1.62% and -3.27%
COc1ccccc1N1CCN(c2nc(CNC(=O)c3sc(C)nc3C)nc3ccccc23)CC1 -3.75%
CC(C)C[C@H](NC(=O)[C@@H](O)[C@H](N)Cc1ccccc1)C(=O)O -2.24% and 1.65% and -13.1%
Cc1cc(C(=O)N2CCOc3ccc(CN4CCC(Oc5cccnc5)CC4)cc3C2)c(C)o1 -13.2%
O=C(O)CN(CCOCCOCCN(CC(=O)O)CC(=O)O)CC(=O)O 6.68% and -10.1%
COc1cc([C@@H]2c3cc4c(cc3[C@H](O)[C@H]3COC(=O)[C@H]23)OCO4)cc(OC)c1OC -3.72% and -12% and -7.05%
O=P(O)(O)C(O)(Cc1cnc2ccccn12)P(=O)(O)O -12.9%
Cc1ccc(S(=O)(=O)NC(=O)NC2CCCCCCC2)cc1 6.91%
O=C1CCCCN1CCC(=O)N1CCOc2ccc(C(O)C3CCCCC3)cc2C1 (stereo not given) -12.1%
COC(=O)[C@H]1[C@H]2C[C@@H]3c4[nH]c5cc(OC)ccc5c4CCN3C[C@H]2C[C@@H](OC(=O)c2cc(OC)c(OC)c(OC)c2)[C@@H]1OC -8.15% and -48.6%
COc1cc2c(cc1OC)-c1cc3ccc(OC)c(OC)c3c[n+]1CC2 1.26%
COc1cccc(-c2ccc3ncnc(NC4CC4)c3c2)c1 -13.4%
COc1ccc(C2c3cc(OC)c(OC)cc3Cc3c4cc(OC)c(OC)cc4cc[n+]32)cc1OC (stereo not given) 0.293%
COc1ccccc1CNc1ncnc2ccc(-c3ccccc3CN(C)C)cc12 -6.07%
Cc1ncc2c(c1CNS(=O)(=O)N(C)C)CCN(C(=O)c1c(F)cccc1F)C2 -10.7%
Nc1c2c(nc3c1CCC3)CCCC2 -0.847%
CCOC(=O)Nc1ccc2c(c1)N(C(=O)CCN1CCOCC1)c1ccccc1S2 -6.22%
CC(NC(=O)C1CCOCC1)c1nnc2n1CCN(Cc1cc3c(cc1Cl)OCO3)CC2 (stereo not given) -1.84%
O=C1[C@H](Cc2ccccc2)NCCCC[C@@H](c2ccc(Cl)cc2)N1Cc1ccccc1 -33.3%
O=c1c(-c2ccc(O)cc2)coc2cc(O)cc(O)c12 -38.3% and -15.3% and -23.9%
COCCn1c(=O)c(C)nc2cnc(OC)nc21 -6.26%
O=c1cc(-c2cccc(O)c2O)oc2ccccc12 1.22%
Cc1cn(C2CC(N=[N+]=[N-])C(CO)O2)c(=O)[nH]c1=O (stereo not given) -9.96%
N[C@H](Cc1ccccc1)C(=O)O -8.69%
N=C(N)n1cccn1 -2.46%
O=C(c1ccco1)N1CCC2(CCCN(Cc3ccccc3)C2)CC1 0.192%
NCCO 14.1%
Cc1ccc2c(CC(=O)N3CCOc4ccc(CN5C[C@@H](C)O[C@@H](C)C5)cc4C3)cc(=O)oc2c1 -1.78%
COc1cccc(C2(CC(=O)N3CCCOc4c(cccc4OC)C3)CC(=O)N(C)C2=O)c1 (stereo not given) -1.55%
O=S1(=O)CCOCCCN1Cc1cccc(Cl)c1 -19.7%
O=C1C=CC(=C(c2ccc(O)cc2)c2ccc(O)cc2)C=C1 12.8%
O=C(NCCN1Cc2ccccc2OC(c2ccsc2)C1)c1cncs1 (stereo not given) -9.93%
COC(=O)[C@@H]1C[C@@H](NC(=O)c2ccc(C(F)(F)F)cc2)CN1Cc1cccc(O)c1 -2.93%

Reference: PubChem BioAssay AID1645887 (National Center for Advancing Translational Sciences (NCATS), 2021)
